According to PubChem BioAssay AID588342 (National Center for Advancing Translational Sciences (NCATS), 2011):
Where “and” joins values, the source holds several entries; their conditions need not be identical. Equal values may be shown once. In all, about 360,000 compounds went through this assay and about 25,000 (6.9%) were called active. The shares of active, inactive and inconclusive entries below differ from those in the screen. Calls follow the shape of the dose curve; as a rule, active = well fitted inhibition curve with a large enough effect; inconclusive = small, poorly fitted or top-dose-only effect; inactive = flat fitted curve, though single readings scatter. A potency beside an inconclusive call is a rough fit, not a confirmed value.

What follows are compounds tested against Luciferin 4-monooxygenase (Photinus pyralis) (UniProt P08659) (assay: qHTS profiling assay for firefly luciferase inhibitor/activator using purifed enzyme and Km concentrations of substrates (counterscreen for miR-21 project)). Settings: purified FLuc, luminescence inhibition; series mostly up to 57.5 µM.
Method in brief: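 Purified P. pyralis luciferase (10nM final) with 10uM D-luciferin and 10uM ATP (Km levels) in 50mM Tris acetate pH 7.5, 10mM Mg acetate, 0.01% Tween-20, 0.05% BSA; qHTS 6-point titration, ~60 µM downward; luminescence read.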
Also: nearly all actives have a fitted effect of over 55% in size.
Potency is read from the fitted curve at half-maximal effect; tags tell the direction and shape of the fitted curve.

Chain of UniProt P08659 (P08659 whole entry, looked up): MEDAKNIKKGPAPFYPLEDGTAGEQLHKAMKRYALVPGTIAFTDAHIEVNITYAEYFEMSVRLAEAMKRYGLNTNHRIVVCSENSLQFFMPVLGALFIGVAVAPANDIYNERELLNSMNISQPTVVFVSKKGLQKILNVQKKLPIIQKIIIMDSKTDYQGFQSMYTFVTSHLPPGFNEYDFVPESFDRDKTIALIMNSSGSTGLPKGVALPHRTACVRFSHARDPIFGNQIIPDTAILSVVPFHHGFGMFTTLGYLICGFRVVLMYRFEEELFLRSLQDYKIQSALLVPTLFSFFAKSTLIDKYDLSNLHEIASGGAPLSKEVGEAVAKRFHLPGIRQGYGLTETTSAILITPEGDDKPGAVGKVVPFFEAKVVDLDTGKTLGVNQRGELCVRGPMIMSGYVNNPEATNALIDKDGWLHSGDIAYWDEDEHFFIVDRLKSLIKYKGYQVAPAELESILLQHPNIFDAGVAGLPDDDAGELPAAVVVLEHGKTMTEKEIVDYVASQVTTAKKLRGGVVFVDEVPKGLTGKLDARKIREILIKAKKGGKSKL

**Q.** How did the Potency turn out when O=[N+]([O-])c1cc(-c2ccc(C(=S)N3CCOCC3)o2)ccc1Cl was run?
**A.** The Potency was active: 15.1 µM.

**Q.** For O=C(Nc1cccc(O)c1)c1cccc(C(=O)Nc2cccc(O)c2)c1, which Potency is on record?
**A.** Its Potency is inconclusive: 16.9 µM [inhibitor, partial curve].

**Q.** With COCc1nnc(NC(=O)c2ccc(Cl)cc2[N+](=O)[O-])s1 as the compound, how does the Potency read?
**A.** The Potency was inconclusive: 21.3 µM [inhibitor, partial curve, poor fit].

**Q.** O=S(=O)(c1cccc2nonc12)N1CCN(c2ccc(F)cc2)CC1 was tested. Which Potency did it give?
**A.** Its Potency is active: 26.9 µM.

**Q.** O=C(NC(=S)Nc1ccccc1[N+](=O)[O-])c1ccccc1 was tested. Which Potency did it give?
**A.** Its Potency is inconclusive: 23.9 µM [inhibitor, single point].

**Q.** With CNc1ccc(Br)cc(C(=O)/C=C/c2ccc3c(c2)OCO3)c1=O as the compound, how does the Potency read?
**A.** Its Potency is inconclusive: 12 µM [inhibitor, partial curve].

**Q.** COC(=O)c1ccc(N2CCOCC2)c(NC(=O)c2ccc3c(c2)OCCO3)c1 was tested. Which Potency did it give?
**A.** The Potency was “inactive”.

**Q.** O=c1c2ccccc2nc2ccc(NCc3ccco3)nn12 was tested. Which Potency did it give?
**A.** The Potency was active: 10.7 µM.

**Q.** With Cc1ccc(N2CC(C(=O)Nc3ccc(N(C)C)cc3)CC2=O)cc1C (stereo not drawn) as the compound, how does the Potency read?
**A.** Its Potency is inconclusive: 23.9 µM [inhibitor, single point].

**Q.** Which Potency does the source give for COc1ccc(/C=C2\OC(=S)N(C)C2=O)cc1 here?
**A.** Its Potency is “inactive”.

**Q.** Cc1cccc(N(C(=O)CNC(=O)c2ccco2)C(C(=O)NC2CCCC2)c2cccnc2)c1C (stereo not drawn) was tested. Which Potency did it give?
**A.** Its Potency is “inactive”.

**Q.** Cc1cc(C(=O)N/N=C/c2ccc(C)s2)n[nH]1 was tested. Which Potency did it give?
**A.** The Potency was inconclusive: 16.9 µM [inhibitor, partial curve].

**Q.** For O=C(N/N=C/c1ccccn1)c1cc(-c2ccc(Br)cc2)nc2ccccc12, which Potency is on record?
**A.** Its Potency is active: 5.36 µM.

**Q.** For O=C1C=CC(O)(c2cc(=O)c3c(O)cc(O)cc3o2)C=C1, which Potency is on record?
**A.** The Potency was inconclusive: 30.1 µM [inhibitor, partial curve, poor fit].

**Q.** For CCOc1cc(NC(=S)NCCCOC)c(OCC)cc1NC(=O)c1ccco1, which Potency is on record?
**A.** The Potency was “inactive”.

**Q.** For COc1ccc(Nc2ncnc3c2oc2ccccc23)cc1, which Potency is on record?
**A.** The Potency was active: 9.53 µM.

**Q.** For C#CCn1cc(C=C2C(=O)c3ccccc3C2=O)c2ccccc21, which Potency is on record?
**A.** Its Potency is active: 2.39 µM.

**Q.** Which Potency does the source give for CC(=O)c1ccc(NS(=O)(=O)c2ccc(N/C=C/C(=O)c3ccc(F)cc3)cc2)cc1 here?
**A.** The Potency was inconclusive: 19 µM [inhibitor, partial curve].

**Q.** Which Potency does the source give for COc1ccccc1N1CCN(C(=O)c2cc3c(=O)n(Cc4ccco4)ccc3nc2C)CC1 here?
**A.** Its Potency is “inactive”.

**Q.** For COC(=O)CCCc1nc2ccccc2s1, which Potency is on record?
**A.** Its Potency is inconclusive: 30.1 µM [inhibitor, single point].

**Q.** For Cc1ccnc(NC(=O)CNC(=O)c2ccc(C)s2)c1, which Potency is on record?
**A.** Its Potency is inconclusive: 19 µM [inhibitor, single point].

**Q.** With C=CCn1cc(C(=O)NCCCN(CC)CC)c(=O)c2cc(S(=O)(=O)N3CCC(C)CC3)ccc21 as the compound, how does the Potency read?
**A.** Its Potency is “inactive”.

**Q.** With Cc1cc(Br)c(NC(=O)CN(C)CCOc2ccccc2)c(Br)c1 as the compound, how does the Potency read?
**A.** Its Potency is inconclusive: 37.9 µM [inhibitor, single point].

**Q.** With CCc1c(C)sc(NC(=O)C2CC2c2ccccc2)c1C(N)=O (stereo not drawn) as the compound, how does the Potency read?
**A.** The Potency was inconclusive: 26.9 µM [inhibitor, partial curve, poor fit].

**Q.** How did the Potency turn out when CCCC(=O)Nc1ccc(C(=O)N/N=C/c2ccc[nH]2)cc1 was run?
**A.** Its Potency is “inactive”.

**Q.** CCc1nccn1CCC(=O)N1CCCC(N2CCN(c3cccc(Cl)c3)CC2)C1 (stereo not drawn) was tested. Which Potency did it give?
**A.** Its Potency is inconclusive: 19 µM [inhibitor, single point].

**Q.** For C=CCN1C(=O)/C(=C/c2ccc(N(C)C)cc2)S/C1=N\c1nnc(CC)s1, which Potency is on record?
**A.** Its Potency is “inactive”.

**Q.** With Cc1ccccc1OCC(=O)Nc1ccc2c(c1)Cc1ccccc1-2 as the compound, how does the Potency read?
**A.** Its Potency is inconclusive: 37.9 µM [inhibitor, partial curve, poor fit].

**Q.** How did the Potency turn out when COc1cccc2c(=O)cc(C)n(CC(=O)Nc3cccc(C)c3)c12 was run?
**A.** The Potency was inconclusive: 30.1 µM [inhibitor, single point].

**Q.** O=C(CCC(=O)NNc1nc2ccccc2c2nc(-c3ccccc3)nn12)NCCCN1CCCC1=O was tested. Which Potency did it give?
**A.** The Potency was inconclusive: 16.9 µM [inhibitor, single point].

**Q.** Which Potency does the source give for O=[N+]([O-])c1ccc(/C=N/Nc2ccnc3cc(Cl)ccc23)o1 here?
**A.** The Potency was inconclusive: 23.9 µM [inhibitor, partial curve].

**Q.** Cn1nc(C(=O)OCC(=O)N2CCc3ccccc32)c2ccccc2c1=O was tested. Which Potency did it give?
**A.** Its Potency is inconclusive: 26.9 µM [inhibitor, single point].

**Q.** Which Potency does the source give for CCc1ccc(NC(=O)CCc2ccc(C)o2)cc1 here?
**A.** Its Potency is inconclusive: 23.9 µM [inhibitor, single point].

**Q.** With Cc1ccc(-c2nc3ccc(Cl)cc3n2OC(C)C(=O)O)cc1 (stereo not drawn) as the compound, how does the Potency read?
**A.** Its Potency is active: 10.7 µM.

**Q.** For COc1cccc(NS(=O)(=O)c2ccc3[nH]cc(C(=O)N4CCCCCC4)c(=O)c3c2)c1, which Potency is on record?
**A.** Its Potency is inconclusive: 30.1 µM [inhibitor, partial curve, poor fit].

**Q.** For COc1ccccc1NCc1nnc(-c2ccccc2)o1, which Potency is on record?
**A.** Its Potency is inconclusive: 15.1 µM [inhibitor, partial curve, poor fit].

**Q.** With COc1ccc(C(=O)COc2ccccc2C#N)cc1 as the compound, how does the Potency read?
**A.** The Potency was inconclusive: 16.9 µM [inhibitor, partial curve].

**Q.** How did the Potency turn out when CCN(CC)CCNC(=O)c1ccc(NC(=O)c2ccc3c(c2)CCC3)cc1 was run?
**A.** Its Potency is inconclusive: 30.1 µM [inhibitor, partial curve, poor fit].

**Q.** How did the Potency turn out when O=C(Nc1ccccc1C(=O)N1CCCC1)c1ncoc1-c1cccc(Cl)c1 was run?
**A.** The Potency was inconclusive: 37.9 µM [inhibitor, partial curve, poor fit].

**Q.** O=c1[nH]c2ccc(F)cc2[nH]c1=O was tested. Which Potency did it give?
**A.** Its Potency is “inactive”.

**Q.** Which Potency does the source give for COc1cc(/C=N/NC(=O)c2cc(-c3cccs3)nc3ccccc23)ccc1O here?
**A.** Its Potency is active: 6.75 µM.

**Q.** Which Potency does the source give for Cc1n[nH]c(C)c1CCOc1ccc(C(C)C)cc1 here?
**A.** The Potency was inconclusive: 23.9 µM [inhibitor, single point].

**Q.** With O=C(/C=C\c1ccccc1)Oc1cccc2cccnc12 as the compound, how does the Potency read?
**A.** The Potency was inconclusive: 30.1 µM [inhibitor, partial curve, poor fit].

**Q.** Which Potency does the source give for O=C(OCC(=O)c1ccco1)c1ccc2ncsc2c1 here?
**A.** The Potency was inconclusive: 16.9 µM [inhibitor, partial curve].

**Q.** For c1ccc(CCN2CN=C(Nc3nc4ccccc4o3)NC2)cc1, which Potency is on record?
**A.** The Potency was inconclusive: 6.75 µM [inhibitor, partial curve, poor fit].

**Q.** Which Potency does the source give for CCN(CC)C(=O)c1ccc(-c2ccccc2)cc1 here?
**A.** The Potency was inconclusive: 26.9 µM [inhibitor, single point].

**Q.** For CC(C)N(C(=O)CN1C(=O)NC(c2ccccc2)(c2ccccc2)C1=O)C(C)C, which Potency is on record?
**A.** The Potency was “inactive”.

**Q.** With COc1cc(/C=C/C(=O)OCC(=O)Nc2ccc(NC(C)=O)cc2)cc(S(=O)(=O)N2CCc3ccccc32)c1OC as the compound, how does the Potency read?
**A.** Its Potency is inconclusive: 15.1 µM [inhibitor, partial curve].

**Q.** Cc1nc(C)c(-c2ccc(SCC(=O)Nc3ccc(F)c(F)c3)nn2)s1 was tested. Which Potency did it give?
**A.** Its Potency is inconclusive: 21.3 µM [inhibitor, single point].

**Q.** With O=c1c2cc3c(cc2nc2sc(Nc4ccc(F)c(Cl)c4)nn12)OCO3 as the compound, how does the Potency read?
**A.** Its Potency is “inactive”.

**Q.** O=C(O)c1cc([N+](=O)[O-])c(NCCC2=CCCCC2)c([N+](=O)[O-])c1 was tested. Which Potency did it give?
**A.** The Potency was inconclusive: 23.9 µM [inhibitor, single point].

**Q.** CCOC(=O)C1=C(C)N=c2s/c(=C/c3cccc([N+](=O)[O-])c3O)c(=O)n2C1c1ccc(OC)cc1OC (stereo not drawn) was tested. Which Potency did it give?
**A.** Its Potency is inconclusive: 26.9 µM [inhibitor, partial curve, poor fit].

**Q.** For O=C(COC(=O)c1ccccc1SCC(=O)N1CCCC1)Nc1ccc(OC(F)F)cc1, which Potency is on record?
**A.** Its Potency is inconclusive: 3.79 µM [inhibitor, partial curve, poor fit].

**Q.** With COc1ccccc1Nc1nnc(SCC2CCCCO2)s1 (stereo not drawn) as the compound, how does the Potency read?
**A.** The Potency was active: 1.51 µM.

**Q.** For Cc1cc(OCC(=O)N2CCOCC2)ccc1[N+](=O)[O-], which Potency is on record?
**A.** Its Potency is active: 23.9 µM.

**Q.** With Cc1ccc(NC(=O)c2cc(S(=O)(=O)N3CCCC(C)C3)cn2C)c(Br)c1 (stereo not drawn) as the compound, how does the Potency read?
**A.** The Potency was “inactive”.

**Q.** How did the Potency turn out when Cc1cc(NC(=O)/C=C/c2cccc(F)c2)n(-c2nc3ccccc3[nH]2)n1 was run?
**A.** Its Potency is inconclusive: 3.79 µM [inhibitor, partial curve, poor fit].

**Q.** How did the Potency turn out when CCn1cc(C(=O)Nc2ccccc2C(=O)OC)c(=O)c2ccc(C)nc21 was run?
**A.** Its Potency is active: 3.38 µM.

**Q.** For CCN(C(=O)/C=C/c1ccccc1)C1CCCCC1, which Potency is on record?
**A.** The Potency was inconclusive: 37.9 µM [inhibitor, partial curve, poor fit].

**Q.** How did the Potency turn out when COc1cccc(C(=O)/C=C/Nc2cc(C)ccc2O)c1 was run?
**A.** The Potency was active: 2.69 µM.

**Q.** Cc1ccc(-c2nc3ccccn3c2Nc2ccc3c(c2)OCO3)cc1 was tested. Which Potency did it give?
**A.** Its Potency is inconclusive: 13.5 µM [inhibitor, partial curve].

**Q.** With Cc1ccc(C(=O)Nc2ncn[nH]2)cc1 as the compound, how does the Potency read?
**A.** The Potency was inconclusive: 30.1 µM [inhibitor, partial curve, poor fit].

**Q.** For CSc1ccccc1NC(=O)C1=CC(c2ccc(C)cc2)=NS(=O)(=O)N1C, which Potency is on record?
**A.** Its Potency is inconclusive: 30.1 µM [inhibitor, partial curve, poor fit].

**Q.** O=C(NC1CCCCCC1)C1CCN(C(=O)N2CCOc3ccccc32)CC1 was tested. Which Potency did it give?
**A.** The Potency was inconclusive: 9.53 µM [inhibitor, partial curve].

**Q.** How did the Potency turn out when Cc1cc(OCC(=O)c2ccc(F)cc2)ccc1N1C(=O)CCC1=O was run?
**A.** The Potency was inconclusive: 37.9 µM [inhibitor, single point].

**Q.** With Nc1nc2ccc(OC(F)(F)F)cc2s1 as the compound, how does the Potency read?
**A.** Its Potency is inconclusive: 16.9 µM [inhibitor, partial curve] and inconclusive: 19 µM [inhibitor, partial curve].

**Q.** How did the Potency turn out when CN(C)S(=O)(=O)c1ccc(NC(=O)c2ccncc2)cc1 was run?
**A.** The Potency was inconclusive: 0.0085 µM [inhibitor, partial curve, poor fit].

**Q.** With COc1ccc2oc(C(=O)Nc3ccccc3N3CCOCC3)c(C)c2c1 as the compound, how does the Potency read?
**A.** The Potency was inconclusive: 2.69 µM [inhibitor, partial curve].
